{"source": "PubChem BioAssay AID488969", "about": "(Vanderbilt High Throughput Screening Facility, 2010)", "note": "The full ranking holds about 110,000 compounds; the median of “z-score” is about -0.1, and the highest 2% start at about 2. Some of the results follow.", "data": [{"target": "Metabotropic glutamate receptor 8 (Rattus norvegicus) (UniProt P70579)", "sequence (P70579 whole entry, looked up)": "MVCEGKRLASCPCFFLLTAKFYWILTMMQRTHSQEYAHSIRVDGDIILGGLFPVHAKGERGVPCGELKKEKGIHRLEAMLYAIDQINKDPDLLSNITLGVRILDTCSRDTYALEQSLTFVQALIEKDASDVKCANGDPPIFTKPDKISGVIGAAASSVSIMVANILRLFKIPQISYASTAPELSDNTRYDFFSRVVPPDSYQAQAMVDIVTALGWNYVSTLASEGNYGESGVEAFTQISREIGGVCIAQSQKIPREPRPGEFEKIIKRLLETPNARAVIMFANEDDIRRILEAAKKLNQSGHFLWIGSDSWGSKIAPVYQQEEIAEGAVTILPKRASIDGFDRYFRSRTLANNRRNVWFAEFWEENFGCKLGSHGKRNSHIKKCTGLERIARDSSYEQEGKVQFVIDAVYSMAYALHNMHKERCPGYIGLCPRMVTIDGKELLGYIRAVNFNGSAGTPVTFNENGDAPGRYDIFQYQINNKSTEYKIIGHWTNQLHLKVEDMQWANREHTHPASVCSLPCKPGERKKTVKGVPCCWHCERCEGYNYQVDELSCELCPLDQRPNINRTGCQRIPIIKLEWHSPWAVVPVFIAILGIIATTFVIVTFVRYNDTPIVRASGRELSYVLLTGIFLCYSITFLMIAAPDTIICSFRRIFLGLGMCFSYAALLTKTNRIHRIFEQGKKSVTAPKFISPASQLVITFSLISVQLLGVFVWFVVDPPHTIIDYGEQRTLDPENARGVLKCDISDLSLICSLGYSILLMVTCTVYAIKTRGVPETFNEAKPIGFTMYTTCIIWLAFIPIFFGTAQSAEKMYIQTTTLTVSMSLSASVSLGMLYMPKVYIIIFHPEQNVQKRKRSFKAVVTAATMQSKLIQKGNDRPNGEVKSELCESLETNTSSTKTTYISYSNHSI", "test": "mGluR8 Gi/Go-coupled signaling modulation – cell-based, rat, thallium flux, HTS, primary screen (AID 488969)", "conditions": "HEK293 rat mGluR8, GIRK (G protein-gated inwardly rectifying potassium channel) thallium flux, FluoZin2; at 10 µM; stronger effect = higher value; submaximal glutamate (EC20) added with thallium", "values": [{"smiles": "CCOC(=O)C1CCCc2c1[nH]c1c(C(=O)O)cccc21", "note": "(stereo unspecified)", "z-score": 0.713}, {"smiles": "Cc1ccc(Sc2ccc([N+](=O)[O-])cc2[N+](=O)[O-])nc1", "z-score": -0.158}, {"smiles": "CC(C)(C)NC(=O)CN(Cc1cccs1)C(=O)C1COc2ccccc2O1", "note": "(stereo unspecified)", "z-score": -0.32}, {"smiles": "COc1ccc(-c2cc(C(F)(F)F)nc(-n3ccnc3C)n2)cc1", "z-score": -0.187}, {"smiles": "COc1ccc(CCNC(=S)Nc2cccc(C)c2C)cc1", "z-score": 0.194}, {"smiles": "COc1ccc(CC(=O)N2CCc3ccccc32)cc1", "z-score": 0.0191}, {"smiles": "Cc1ccc(NC(=O)c2cn(-c3cccc(C)n3)cn2)cc1", "z-score": 0.00633}, {"smiles": "COc1ccc(NC(=O)C(c2ccc(C)cc2)N(C)C(=O)CC2NC(=O)NC2=O)cc1", "note": "(stereo unspecified)", "z-score": -0.6}, {"smiles": "COc1ccc(-n2nnnc2SCc2nc3ccccc3s2)cc1", "z-score": -0.0706}, {"smiles": "COc1ccc(-c2cnc(N)n2CC2CCCO2)cc1", "note": "(stereo unspecified)", "z-score": -0.256}, {"smiles": "Cn1c(O)c(C=NCC2CCNCC2)c(=O)n(C)c1=O", "z-score": 0.695}, {"smiles": "COc1ccc(NC(=O)CSc2nnc(C3CC3)n2-c2ccccc2)cc1", "z-score": 0.316}, {"smiles": "Cc1ccc(OCC(=O)N/N=C\\c2c(C)n(C)c3ccccc23)c([N+](=O)[O-])c1", "z-score": -0.392}, {"smiles": "O=C(COC(=O)CCC(=O)c1cccs1)Nc1cc(S(=O)(=O)N2CCOCC2)ccc1Cl", "z-score": -0.416}, {"smiles": "CCOC(=O)N1CCN(S(=O)(=O)c2ccc(OCC(=O)OC)c(C)c2)CC1", "z-score": -0.157}, {"smiles": "CCN(CC)c1nc(C)c(C(C)=O)cc1C#N", "z-score": -0.31}, {"smiles": "CC(NC(=O)c1cccnc1)C(c1cccs1)N1CCN(C)CC1", "note": "(stereo unspecified)", "z-score": -0.0346}, {"smiles": "Cc1cc(-c2c(C)[nH]n(-c3ccc(Cl)cc3)c2=O)n[nH]1", "z-score": -0.115}, {"smiles": "Cc1nc2c(Cl)cccc2[nH]1", "z-score": 0.0958}, {"smiles": "COc1cccc(/C=N/NC(=O)c2nc(-c3ccccc3)cc(-c3ccccc3)n2)c1O", "z-score": -0.12}, {"smiles": "CCCc1cc(=O)[nH]c(SCc2ccccc2)n1", "z-score": -0.501}, {"smiles": "Cc1ccc(Cn2c(SCC(=O)NCC3CCCO3)nc3c(sc4ccccc43)c2=O)cc1", "note": "(stereo unspecified)", "z-score": 2.06}, {"smiles": "COCCNC(=O)/C(C#N)=C/c1ccc(-c2ccc(OC)cc2[N+](=O)[O-])o1", "z-score": -0.564}, {"smiles": "O=C(COc1cc(Cl)c(Cl)cc1Cl)Nc1ccncc1", "z-score": 1.2}, {"smiles": "S=c1nc[nH]c2c1[nH]c1ccccc12", "z-score": 0.0879}, {"smiles": "COc1ccccc1NC(=S)NC1CCCCC1", "z-score": -0.189}, {"smiles": "CCOC(=O)c1c(-c2ccccc2Cl)csc1NC(=O)CSc1nc(C)cc(=O)[nH]1", "z-score": -1.63}, {"smiles": "CCCOc1ccccc1N/C(=N/c1nc(C)cc(C)n1)NC(=O)COc1ccc(OC)cc1", "z-score": 0.266}, {"smiles": "CC1(C)C=C(c2ccc(C=O)s2)CC(C)(C)N1", "z-score": -0.126}, {"smiles": "COc1cccc(/C=N\\n2c(C)nnc2C)c1OC", "z-score": -0.307}, {"smiles": "COc1ccc(Cl)cc1-n1c(N)c(C(N)=O)sc1=S", "z-score": -0.176}, {"smiles": "COc1ccc(-c2cc(-c3cccs3)c(C#N)c(SCC(=O)NCc3ccccc3OC)n2)cc1", "z-score": 0.373}, {"smiles": "CCOC(=O)c1cnc(SCC(=O)Nc2cc(C(F)(F)F)ccc2N2CCOCC2)nc1N", "z-score": 0.251}, {"smiles": "CCOc1cc(/C=N/NC(=O)c2ccc(CN3CCOCC3)cc2)ccc1OCc1ccccc1", "z-score": -0.182}, {"smiles": "Nc1nonc1C(=O)NCCNCc1ccccc1OCc1ccc(F)cc1", "z-score": 0.932}, {"smiles": "COc1ccc(-c2nc(CSCC(=O)N3CCN(C)CC3)c(C)o2)cc1OC", "z-score": -0.0626}, {"smiles": "CC(=O)Nc1ccc(NC(=O)CSc2ccc(-c3ccc4c(c3)OCO4)nn2)cc1", "z-score": 0.189}, {"smiles": "C=C(C)CNC(=S)/N=c1\\scc(C)n1CC", "z-score": 0.0475}, {"smiles": "Cc1cc(OC(C)C)c2c(-c3ccccc3)cc(=O)oc2c1", "z-score": -0.594}, {"smiles": "CCOC(=O)C1CCC(CNCc2ccc(Cl)cc2)CC1", "note": "(stereo unspecified)", "z-score": -1.85}, {"smiles": "COC(=O)c1sccc1NC(=O)CCC1CCCC1", "z-score": -0.354}, {"smiles": "O=C1NC(c2ccccc2)(C(F)(F)F)SC2=NCCCN12", "note": "(stereo unspecified)", "z-score": 0.684}, {"smiles": "O=c1cc(CN2CCN(c3cccc(Cl)c3)CC2)c2cc(O)c(-c3ccccc3)cc2o1", "z-score": -0.175}, {"smiles": "Cc1ccc2c(c1C)NC(=O)C2(O)CC(=O)c1ccc2c(c1)OCO2", "note": "(stereo unspecified)", "z-score": 0.111}, {"smiles": "COc1ccc(NC(=O)CCN2C(=O)C3C4CCC(C4)C3C2=O)cc1", "note": "(stereo unspecified)", "z-score": 1.07}, {"smiles": "Cc1cc(C)cc(CC2CC(=O)N(c3cc(C)on3)C2=O)c1", "note": "(stereo unspecified)", "z-score": -0.0765}, {"smiles": "CSc1nc2ccccc2n1Cc1cccc(F)c1", "z-score": -0.682}, {"smiles": "Cc1cc(=O)oc2cc(OCC3CC(c4ccccc4)=NO3)ccc12", "note": "(stereo unspecified)", "z-score": -0.445}, {"smiles": "Cc1ccc(Cn2c(=N)n(CC(O)COc3ccccc3)c3ccccc32)cc1", "note": "(stereo unspecified)", "z-score": 2.98}, {"smiles": "COc1ccc(C2/C(=C(\\O)c3cc(C)ccc3C)C(=O)C(=O)N2CCN(C)C)cc1OC", "note": "(stereo unspecified)", "z-score": 0.36}, {"smiles": "CCCOc1ccc(C(=O)N2CCN(c3ccc(NC(=O)CC)cc3Cl)CC2)cc1", "z-score": -0.254}, {"smiles": "N#Cc1c(NC(=O)CSc2nnc(-c3ccccc3)o2)sc2c1CCCC2", "z-score": -0.225}, {"smiles": "COc1cccc(-c2nc(CS(=O)(=O)CC(=O)Nc3cc(C)ccc3C)c(C)o2)c1", "z-score": -1.75}, {"smiles": "O=C(Nc1cc(Cl)ccc1N1CCOCC1)c1cnccn1", "z-score": 0.036}, {"smiles": "COc1ccc(CCNC(=O)COc2ccc(S(=O)(=O)NC3CCCCC3)cc2Cl)cc1OC", "z-score": -0.141}, {"smiles": "COC(=O)c1cc(OC)c(OC)cc1NC(=O)CCc1ccc(C)o1", "z-score": -0.276}, {"smiles": "Cc1cc2c(c(=O)n1Cc1ccccn1)C(C(C)C)C(C#N)=C(N)O2", "note": "(stereo unspecified)", "z-score": 0.416}, {"smiles": "CCOc1ncccc1C(=O)OCc1ccc(Cl)cc1", "z-score": -0.138}, {"smiles": "CSc1nnc(-c2sc3cc(C(F)(F)F)cnc3c2-c2cccnc2)n1C", "z-score": 0.0193}, {"smiles": "COc1cc(CNCCSc2nnnn2C)cc(OC)c1OC", "z-score": -0.0463}, {"smiles": "CC1CCCC(NC(=S)NC(=O)c2ccccc2Br)C1C", "note": "(stereo unspecified)", "z-score": 2.91}, {"smiles": "CCSc1ncc(Cl)c(C(=O)N(Cc2ccc(N(C)C)cc2)C2CCS(=O)(=O)C2)n1", "note": "(stereo unspecified)", "z-score": 0.00675}, {"smiles": "Cc1ccc2c(C(=O)CN3CCSCC3)c(C)[nH]c2c1", "z-score": -0.211}, {"smiles": "CCOC(=O)c1c(-c2ccc(C)cc2)cn2ccccc12", "z-score": -0.192}, {"smiles": "CC(C)(C)c1ccc(/C=N/NC(=O)C(=O)NCCCN2CCOCC2)cc1", "z-score": 0.0375}, {"smiles": "O=C(Nc1ccc2nsnc2c1)c1cccs1", "z-score": 0.717}, {"smiles": "CCOn1c(=O)c(-c2ccc(OC)c(OC)c2)[n+]([O-])c2ccccc21", "z-score": -0.237}, {"smiles": "Cc1c(NC(=O)c2ccc(C(C)(C)C)cc2)cccc1[N+](=O)[O-]", "z-score": -0.278}, {"smiles": "O=C(CC1S/C(=N/N=C/c2c[nH]c3ccccc23)NC1=O)Nc1ccccc1", "note": "(stereo unspecified)", "z-score": -0.0073}, {"smiles": "O=c1c(C(c2ccc(O)cc2)c2c(O)nc3n(c2=O)CCS3)c(O)nc2n1CCS2", "z-score": -0.51}, {"smiles": "c1ccc(-c2cnn3c(-c4ccccc4)c(-c4ccccc4)nc3n2)cc1", "z-score": -0.202}]}]}
